Our source for the binding signal values is article PMC7819943, “Rice protein-binding microarrays: a tool to detect cis-acting elements near promoter regions in rice”.

The other results are listed elsewhere or left out.

This assay deals with T1, OsWOX13 (Oryza sativa, UniProt Q5QMM3 1-267).
T1 sequence: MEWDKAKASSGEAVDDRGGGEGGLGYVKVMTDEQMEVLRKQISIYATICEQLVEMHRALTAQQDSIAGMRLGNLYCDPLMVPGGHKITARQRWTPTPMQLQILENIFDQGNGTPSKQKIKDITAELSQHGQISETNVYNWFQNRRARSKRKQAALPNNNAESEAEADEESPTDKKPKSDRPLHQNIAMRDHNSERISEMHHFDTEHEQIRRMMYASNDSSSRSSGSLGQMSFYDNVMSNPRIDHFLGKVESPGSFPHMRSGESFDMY
Kind of assay: protein-binding microarray (RPBM); PBS, 2% BSA, 51.3 ng/ul salmon testes DNA, 50 uM zinc acetate, 200 nM TF, 25 C, 1 h; high values mean tight binding. The settings on record: protein: recombinant; tags: N-terminal polyhistidine and DsRed monomer fusion (pET32a); label: CyDye5-dUTP incorporated in the synthesized complementary strand; 3' TTTTT single-stranded linker to array surface; dsDNA, one strand shown. Put shortly: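 Per-feature fluorescence intensity (arbitrary units), read on an Axon 4000B scanner, is the binding signal. Transcription factors carrying an N-terminal polyhistidine tag and DsRed fusion were expressed in E. coli BL21-CodonPlus and purified on Ni–NTA. A custom Agilent array, made double-stranded by primer extension with Cy5-dUTP and blocked with 2% BSA, was incubated with 200 nM protein in PBS, 2% BSA, salmon testes DNA and 50 µM zinc acetate at 25 °C for 1 h and then washed.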
Consider “AATAAACTCTGAGCAGATTGATGGCCCAACAGTTTCATGGCGGAGTCACCTAGTGCAG”, for which the binding signal was 25700 fluorescence intensity (a.u.). Take “ATAATAAAATGCTAATTTGCTGGAGTACTAGATTATAGACCGGAGTCACCTAGTGCAG”: the binding signal was 14900 fluorescence intensity (a.u.).

With “AGATCAATCACATATAGATATAGCTAGATTGCTATAGACACGGAGTCACCTAGTGCAG”, the binding signal is 34400 fluorescence intensity (a.u.).

For the sequence “CAGAATGACTACTAAACTGGACAGAGGGAGTATATCTGTACGGAGTCACCTAGTGCAG”, the binding signal is 3950 fluorescence intensity (a.u.). Then “GAGTAGTTAATTATTCCGGGAATACAACCCAGCCAAGCAACGGAGTCACCTAGTGCAG”, with 6250 fluorescence intensity (a.u.). With “ATCCAAATTGGACCCATCTAGTTGCCCCGGCCCAACACGGCGGAGTCACCTAGTGCAG”, the binding signal was 10000 fluorescence intensity (a.u.).

Regarding “GGTAAATTGCAATACTCCGGATGTTCAGAGACAATAAGAGCGGAGTCACCTAGTGCAG”, the binding signal is 13900 fluorescence intensity (a.u.). Then “ACTTTTCCGTCACATCGTTCTAATTTCTTCAAACTTCTAACGGAGTCACCTAGTGCAG”, with 3750 fluorescence intensity (a.u.); and “AGGTAATTAAGATATGAATAGAAATACCATATCTCTATCTCGGAGTCACCTAGTGCAG”, with 21500 fluorescence intensity (a.u.). Consider “GATAACTGGATTCATCTGTCTCCTCAACGTGTGGTCTGTACGGAGTCACCTAGTGCAG”, for which the binding signal is 19900 fluorescence intensity (a.u.). On to “AAAACTAATTTTATAACTCACCTGGAAACCGCGAGATGAACGGAGTCACCTAGTGCAG”, for which the binding signal was 4940 fluorescence intensity (a.u.).

In the case of “GCAAGACAGATTTGCTACGAAAGTGTGTTGGTTGGTGGCACGGAGTCACCTAGTGCAG”, the binding signal is 6420 fluorescence intensity (a.u.).

For the sequence “ATAAGTGATTTTAATATTTTGCTTGCACCGTTTGAGCATTCGGAGTCACCTAGTGCAG”, the binding signal is 9340 fluorescence intensity (a.u.). Turning to “GTAAACTATTAGATTGGTTATAGATGAATTGAAGCTAGTACGGAGTCACCTAGTGCAG”, the binding signal was 23500 fluorescence intensity (a.u.).

With “TCTGACAAGGGACTGACAGGATATAAACCGGGACTAAAGACGGAGTCACCTAGTGCAG”, the binding signal is 8410 fluorescence intensity (a.u.). Then “TGTTAGATTTAATGTAATTGATTTGATATTTTAGATATTGCGGAGTCACCTAGTGCAG”, with 49700 fluorescence intensity (a.u.). Then “TGATTGTGTGATTGATGATTAGTGTGTGTATGACTGTATCCGGAGTCACCTAGTGCAG”, with 31400 fluorescence intensity (a.u.). Then “TTTAAAATTATAGATTAGAAAACAAATTTGTCATGTAGAACGGAGTCACCTAGTGCAG”, with 18100 fluorescence intensity (a.u.). As for “TATATATATATATATATATATATATACATTAACTAATCTTCGGAGTCACCTAGTGCAG”, the binding signal was 20400 fluorescence intensity (a.u.). Then “TTTTAAATTTATTTGAATTTAAGAAGGTTGCCATGGTTTTCGGAGTCACCTAGTGCAG”, with 9530 fluorescence intensity (a.u.); and “TAATTTCTGGATTATCACGAGATTGGAAATTTGGAAGGTTCGGAGTCACCTAGTGCAG”, with 6140 fluorescence intensity (a.u.); and “CAACAGGATTGGAAGTGATCAGAGACAGGCAATGAAATCCCGGAGTCACCTAGTGCAG”, with 8460 fluorescence intensity (a.u.). Then “GCAGTAGTAGTTGTGATTGGTTAAGATAAATAGATTGTTGCGGAGTCACCTAGTGCAG”, with 13900 fluorescence intensity (a.u.); and “GCGTTGATGAGTCGTATTAACGATCACTTCTTCTCTTTATCGGAGTCACCTAGTGCAG”, with 5520 fluorescence intensity (a.u.).

Consider “ACAGATTGATGTTATACAAGAAGAATATAATAACATTAGTCGGAGTCACCTAGTGCAG”, for which the binding signal was 36800 fluorescence intensity (a.u.).

For the sequence “CTTGATTGCCCACTTTGGCAATTGTAAAACCGACAAGTAGCGGAGTCACCTAGTGCAG”, the binding signal was 47200 fluorescence intensity (a.u.). As for “GATAATTGTCACGGAATCTGTGGTTTTCCGTCCAATGAATCGGAGTCACCTAGTGCAG”, the binding signal was 25800 fluorescence intensity (a.u.). Then “CGTCCACTCCAATTACATCCATCCATCCGCTCTGCAACCTCGGAGTCACCTAGTGCAG”, with 3610 fluorescence intensity (a.u.). In the case of “AAACAGATTGACTTTAACCAAACTCAAAACGTAAAATAACCGGAGTCACCTAGTGCAG”, the binding signal was 17500 fluorescence intensity (a.u.). As to “TAAAATTTAAATTTTGGCTAATAAGTATAAGCATAACTGTCGGAGTCACCTAGTGCAG”, the binding signal was 15300 fluorescence intensity (a.u.). Then “ACTGTAAACAACTTCTGGTTTGATTGGAATAAATAAATAACGGAGTCACCTAGTGCAG”, with 3270 fluorescence intensity (a.u.); and “AGATAATTTAATTTCTTGGCATTAACAATAACTACACCAACGGAGTCACCTAGTGCAG”, with 41500 fluorescence intensity (a.u.). As for “GTTAGTCAATTAATTAACGGATTAATTTGAGAAGGACACTCGGAGTCACCTAGTGCAG”, the binding signal is 34200 fluorescence intensity (a.u.). Then “TGTTGTAATGAGGATGCATGATTGCTTATTTGCTTTATTTCGGAGTCACCTAGTGCAG”, with 5760 fluorescence intensity (a.u.); and “CACATAACATGGAAATTAGATTTGCCAGAGAGGAGTAATGCGGAGTCACCTAGTGCAG”, with 9580 fluorescence intensity (a.u.); and “ACTGTTGATAGAACCCTTGATGCCAAGGTTTTCAAAGGATCGGAGTCACCTAGTGCAG”, with 11600 fluorescence intensity (a.u.). As to “ATAATTGGAGATGACAATGACAAATAGTTAGGGAGTACTCCGGAGTCACCTAGTGCAG”, the binding signal was 16800 fluorescence intensity (a.u.). Then “TTTGATTTGGAAGGATTTGGATTCGGAATTGAACTCGACGCGGAGTCACCTAGTGCAG”, with 28100 fluorescence intensity (a.u.); and “GATTGATGTGATTTAAATTATCCTTAGTCTTAGTGCATAACGGAGTCACCTAGTGCAG”, with 50900 fluorescence intensity (a.u.); and “AGGCAAACTAACATGATGATTTTCATGATCATTAAACACCCGGAGTCACCTAGTGCAG”, with 7680 fluorescence intensity (a.u.).

In the case of “AGTAATTATTATCACCTTATAGTTTGAATTATCTTAATAACGGAGTCACCTAGTGCAG”, the binding signal was 7450 fluorescence intensity (a.u.). With “TCTTTGTTATAATTATGGGGTTGGTTTTATTCGTTTTCGACGGAGTCACCTAGTGCAG”, the binding signal was 9780 fluorescence intensity (a.u.).
